Reference: the supplement of paper PMC8728848
Some of the results follow.

What was measured:
Experiment in all cases: glycan array binding signal (z-score within array); higher = stronger binding
Conditions in all cases: glycan notation: IUPAC condensed, linker removed
[1] = biological target: Fuc(a1-2)Gal(b1-4)GlcNAc(b1-3)Gal(b1-4)GlcNAc(b1-2)Man(a1-3)[Fuc(a1-2)Gal(b1-4)GlcNAc(b1-3)Gal(b1-4)GlcNAc(b1-2)Man(a1-6)]Man(b1-4)GlcNAc(b1-4)GlcNAc
How it was run: (§1)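 Glycan array data came from 3228 arrays in the Consortium for Functional Glycomics database, and only arrays with an available protein sequence were kept. Glycan names were put into IUPAC-condensed notation, and columns mapping to the same glycan were averaged. The binding signal is a within-array Z-score, averaged across arrays of one protein sequence run at different concentrations or buffers and across linkers. A negative Z-score can be read as non-binding.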

[2] = biological target: Fuc(a1-2)Gal(b1-4)GlcNAc(b1-3)Gal(b1-4)GlcNAc(b1-3)Gal(b1-4)GlcNAc
How it was run: as §1

[3] = biological target: Fuc(a1-2)Gal(b1-4)GlcNAc(b1-3)GalNAc
How it was run: as §1

[4] = biological target: Fuc(a1-2)Gal(b1-4)GlcNAc(b1-3)[Fuc(a1-2)Gal(b1-4)GlcNAc(b1-6)]GalNAc
How it was run: as §1

[5] = biological target: Fuc(a1-2)Gal(b1-4)GlcNAc(b1-3)[Fuc(a1-3)[Gal(b1-4)]GlcNAc(b1-6)]Gal(b1-4)Glc
How it was run: as §1

[6] = biological target: Fuc(a1-2)Gal(b1-4)GlcNAc(b1-6)GalNAc
How it was run: as §1

[7] = biological target: Fuc(a1-2)Gal(b1-4)GlcNAc6S
How it was run: as §1

[8] = biological target: Fuc(a1-2)Gal(b1-4)[Fuc(a1-3)]GlcNAc
How it was run: as §1

[9] = biological target: Fuc(a1-2)Gal(b1-4)[Fuc(a1-3)]GlcNAc(b1-2)Man(a1-3)[Fuc(a1-2)Gal(b1-4)[Fuc(a1-3)]GlcNAc(b1-2)Man(a1-6)]Man(b1-4)GlcNAc(b1-4)[Fuc(a1-6)]GlcNAc
How it was run: as §1

[10] = biological target: Fuc(a1-2)Gal(b1-4)[Fuc(a1-3)]GlcNAc(b1-2)[Fuc(a1-2)Gal(b1-4)[Fuc(a1-3)]GlcNAc(b1-4)]Man(a1-3)[Fuc(a1-2)Gal(b1-4)[Fuc(a1-3)]GlcNAc(b1-2)Man(a1-6)]Man(b1-4)GlcNAc(b1-4)GlcNAc
How it was run: as §1

[11] = biological target: Fuc(a1-2)Gal(b1-4)[Fuc(a1-3)]GlcNAc(b1-3)Gal(b1-4)[Fuc(a1-3)]GlcNAc
How it was run: as §1

[12] = biological target: Fuc(a1-2)Gal(b1-4)[Fuc(a1-3)]GlcNAc(b1-3)Gal(b1-4)[Fuc(a1-3)]GlcNAc(b1-3)Gal(b1-4)[Fuc(a1-3)]GlcNAc
How it was run: as §1

[13] = biological target: Fuc(a1-2)Gal(b1-4)[Fuc(a1-3)]GlcNAc(b1-3)GalNAc
How it was run: as §1

[14] = biological target: Fuc(a1-2)Gal(b1-4)[Fuc(a1-3)]GlcNAc(b1-3)[Neu5Ac(a2-6)Gal(b1-4)GlcNAc(b1-6)]Gal(b1-4)Glc
How it was run: as §1

[15] = biological target: Fuc(a1-2)Gal3S(b1-4)GlcNAc
How it was run: as §1

[16] = biological target: Fuc(a1-2)Gal6S(b1-3)GlcNAc
How it was run: as §1

[17] = biological target: Fuc(a1-2)Gal6S(b1-3)GlcNAc6S
How it was run: as §1

Fuc(a1-2)Gal6S(b1-4)Glc = biological target: Fuc(a1-2)Gal6S(b1-4)Glc
How it was run: as §1

[18] = biological target: Fuc(a1-2)Gal6S(b1-4)Glc6S
How it was run: as §1

Fuc(a1-2)[Gal(a1-3)]Gal = biological target: Fuc(a1-2)[Gal(a1-3)]Gal
How it was run: as §1

[19] = biological target: Fuc(a1-2)[Gal(a1-3)]Gal(b1-3)GalNAc
How it was run: as §1

[20] = biological target: Fuc(a1-2)[Gal(a1-3)]Gal(b1-3)GalNAc(b1-3)Gal(a1-4)Gal(b1-4)Glc
How it was run: as §1

[21] = biological target: Fuc(a1-2)[Gal(a1-3)]Gal(b1-3)GlcNAc
How it was run: as §1

[22] = biological target: Fuc(a1-2)[Gal(a1-3)]Gal(b1-3)GlcNAc(b1-2)Man(a1-3)[Fuc(a1-2)[Gal(a1-3)]Gal(b1-3)GlcNAc(b1-2)Man(a1-6)]Man(b1-4)GlcNAc(b1-4)GlcNAc
How it was run: as §1

[23] = biological target: Fuc(a1-2)[Gal(a1-3)]Gal(b1-3)GlcNAc(b1-2)Man(a1-3)[Fuc(a1-2)[Gal(a1-3)]Gal(b1-3)GlcNAc(b1-2)Man(a1-6)]Man(b1-4)GlcNAc(b1-4)[Fuc(a1-6)]GlcNAc
How it was run: as §1

[24] = biological target: Fuc(a1-2)[Gal(a1-3)]Gal(b1-3)GlcNAc(b1-3)GalNAc
How it was run: as §1

[25] = biological target: Fuc(a1-2)[Gal(a1-3)]Gal(b1-3)GlcNAc(b1-6)GalNAc
How it was run: as §1

[26] = biological target: Fuc(a1-2)[Gal(a1-3)]Gal(b1-4)Glc
How it was run: as §1

[27] = biological target: Fuc(a1-2)[Gal(a1-3)]Gal(b1-4)GlcNAc
How it was run: as §1

[28] = biological target: Fuc(a1-2)[Gal(a1-3)]Gal(b1-4)GlcNAc(b1-2)Man
How it was run: as §1

B1: Siglec-E (Mus musculus), Q91Y57 (protein)
chain: MLLLLLLLLLWGIKGVEGQNPQEVFTLNVERKVVVQEGLCVLVPCNFSYLKKRLTDWTDSDPVHGFWYREGTDRRKDSIVATNNPIRKAVKETRNRFFLLGDPWRNDCSLNIREIRKKDAGLYFFRLERGKTKYNYMWDKMTLVVTALTNTPQILLPETLEAGHPSNLTCSVPWDCGWTAPPIFSWTGTSVSFLSTNTTGSSVLTITPQPQDHGTNLTCQVTLPGTNVSTRMTTRLNVSYAPKNLTVTIYQGADSVSTILKNGSSLPISEGQSLRLICSTDSYPPANLSWSWDNLTLCPSKLSKPGLLELFPVHLKHGGVYTCQAQHALGSQHISLSLSPQSSATLSEMMMGTFVGSGVTALLFLSVCILLLAVRSYRRKPARPAVVAPHPDALKVSVSQNPLVESQADDSSEPLPSILEAAPSSTEEEIHYATLSFHEMKPMNLWGQQDTTTEYSEIKFPQRTAWP
glycan array binding signal (z-score) [1]: -0.402
glycan array binding signal (z-score) [2]: -0.296
glycan array binding signal (z-score) [3]: 0.15
glycan array binding signal (z-score) [4]: 0.034
glycan array binding signal (z-score) [5]: -0.559
glycan array binding signal (z-score) [6]: -0.489
glycan array binding signal (z-score) [7]: 0.191
glycan array binding signal (z-score) [8]: -0.399
glycan array binding signal (z-score) [9]: 0.58
glycan array binding signal (z-score) [10]: 0.32
glycan array binding signal (z-score) [11]: -0.458
glycan array binding signal (z-score) [12]: -0.489
glycan array binding signal (z-score) [13]: -0.019
glycan array binding signal (z-score) [14]: -0.483
glycan array binding signal (z-score) [15]: -0.524
glycan array binding signal (z-score) [16]: -0.173
glycan array binding signal (z-score) [17]: 2.52
glycan array binding signal (z-score) (Fuc(a1-2)Gal6S(b1-4)Glc): -0.15
glycan array binding signal (z-score) [18]: 0.284
glycan array binding signal (z-score) (Fuc(a1-2)[Gal(a1-3)]Gal): -0.371
glycan array binding signal (z-score) [19]: 0.178
glycan array binding signal (z-score) [20]: -0.454
glycan array binding signal (z-score) [21]: 1.03
glycan array binding signal (z-score) [22]: -0.19
glycan array binding signal (z-score) [23]: 0.503
glycan array binding signal (z-score) [24]: 5.32
glycan array binding signal (z-score) [25]: -0.063
glycan array binding signal (z-score) [26]: -0.317
glycan array binding signal (z-score) [27]: -0.454
glycan array binding signal (z-score) [28]: -0.038
